Data from PubChem BioAssay AID1645887 (National Center for Advancing Translational Sciences (NCATS), 2021).
“And” between values parts separate entries of the source, which are not always exact repeats. Equal values may be shown once. Screen size: about 16,000 compounds; about 40 (0.2%) were called active. Inconclusive results (about 1%) are left out. Calls follow the shape of the dose curve; as a rule, active = well fitted activation curve with a large enough effect; inconclusive = small, poorly fitted or top-dose-only effect, or another doubt; inactive = no such curve, though single readings can be large or run the other way. The list shows a part of the results.

Target: Rap guanine nucleotide exchange factor 4 (Homo sapiens) (UniProt Q8WZA2)
UniProt Q8WZA2, sequence (Q8WZA2 whole entry, looked up): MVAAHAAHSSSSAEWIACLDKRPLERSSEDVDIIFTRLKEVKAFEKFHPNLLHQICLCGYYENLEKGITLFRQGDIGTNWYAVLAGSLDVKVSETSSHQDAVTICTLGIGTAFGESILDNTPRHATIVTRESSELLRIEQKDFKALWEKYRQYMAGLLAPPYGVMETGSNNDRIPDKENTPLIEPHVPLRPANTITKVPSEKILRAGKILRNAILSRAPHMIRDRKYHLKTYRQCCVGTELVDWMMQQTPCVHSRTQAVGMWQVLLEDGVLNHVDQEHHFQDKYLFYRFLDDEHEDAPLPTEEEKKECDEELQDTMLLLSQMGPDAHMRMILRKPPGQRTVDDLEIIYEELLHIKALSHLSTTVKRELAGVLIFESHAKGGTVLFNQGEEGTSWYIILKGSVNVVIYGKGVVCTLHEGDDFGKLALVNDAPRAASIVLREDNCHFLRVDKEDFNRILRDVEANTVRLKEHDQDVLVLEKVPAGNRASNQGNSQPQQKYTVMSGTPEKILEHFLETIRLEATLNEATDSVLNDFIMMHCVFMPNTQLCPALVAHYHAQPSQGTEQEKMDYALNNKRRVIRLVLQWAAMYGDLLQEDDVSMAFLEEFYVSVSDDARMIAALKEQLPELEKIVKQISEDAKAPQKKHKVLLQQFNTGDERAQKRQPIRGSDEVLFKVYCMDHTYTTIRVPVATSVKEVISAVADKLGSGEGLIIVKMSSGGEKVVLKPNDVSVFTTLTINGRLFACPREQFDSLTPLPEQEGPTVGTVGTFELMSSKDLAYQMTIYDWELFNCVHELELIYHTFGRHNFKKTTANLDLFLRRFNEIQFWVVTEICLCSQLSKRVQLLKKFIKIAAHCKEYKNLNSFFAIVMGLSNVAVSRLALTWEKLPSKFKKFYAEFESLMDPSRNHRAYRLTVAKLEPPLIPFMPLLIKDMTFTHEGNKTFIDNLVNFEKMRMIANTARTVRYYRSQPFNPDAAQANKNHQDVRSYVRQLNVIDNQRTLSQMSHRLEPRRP
Experiment: Validation qHTS for agonist of cAMP-regulated guanine nucleotide exchange factor 4 (EPAC2);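 also: exchange makes BODIPY-GDP fluorescence drop when released from Rap1B; series mostly up to about 150 µM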
Settings: EPAC2 Rap1B BODIPY-GDP exchange, fluorescence; activation: stronger effect = higher value
Method in brief: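 Fluorescent exchange assay: 100 nM EPAC2 with 250 nM RAP1B-BODIPY-GDP and 50 uM GDP; compound added, 5 min at room temperature, then read (ex 480/em 540 nm) every 5 min for 30 min. Normalized to 6.5 mM cAMP agonist control.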
% is scaled to controls: 0 for no effect and ±100 for the full control effect.

activation, inactive:
Cc1ccc(/C(=C\CN2CCCC2)c2cccc(/C=C/C(=O)O)n2)cc1 -9.15%
Cn1c(O)c(N=NC(N)=S)c2ccccc21 -16.4%
Cc1ccccc1-c1cccc(CN2CCc3nnc(C(C)NC(=O)c4cccnc4)n3CC2)c1 (stereo not drawn) -15.2%
CC(=O)NO -20.5%
CC(N)(Cc1ccc(O)c(O)c1)C(=O)O (stereo not drawn) -27.6%
Cc1ccccc1-c1cncnc1NC1CCNCC1 7%
N[C@@H](Cn1ccc(=O)c(O)c1)C(=O)O -13.2%
O=C(Nc1ccc(Cl)c(C(F)(F)F)c1)[C@@H]1CC=C[C@@H]2CCN(C3CCCCC3)C(=O)[C@@H]21 -13.1%
C/C=C/C=N/NC(=O)c1ccncc1 -6.51%
COc1ccc(CNc2ncncc2-c2ccc(C(=O)N(C)C)cc2)c(OC)c1 7.13%
O=C(Cn1cccn1)N1CCOc2c(cc(-c3ncc(C(F)(F)F)cc3Cl)cc2OCC2CCCO2)C1 (stereo not drawn) -10.6%
COCC(=O)N1CCC2(CCCN(Cc3ccc(C#N)cc3)C2)CC1 -9.03%
COc1cc(O)c2c(=O)c(O)c(-c3ccc(O)c(O)c3)oc2c1 -11.5%
CC(=O)N[C@@H](CCC(N)=O)C(=O)O -4.76%
COc1ccc(-c2c(O)c3c(OC)c4c(cc3oc2=O)OC(C)(C)C=C4)cc1 -4.9%
CCOC(=O)C[C@H]1c2cc(F)ccc2S(=O)(=O)N1C(C)(C)C -22.8%
Cc1ncc2c(c1CNC(=O)c1ccc3c(c1)OCO3)CCN(C(=O)C1Cc3ccccc3O1)C2 (stereo not drawn) -5.78%
O=C(O)C1CCN(c2ncnc3ccc(-c4ccccc4C(F)(F)F)cc23)CC1 -17.2%
COc1cccc(O)c1CN1CCC2(CC1)c1ccccc1[C@@H](NC(=O)c1ccsc1)[C@@H]2OC -27.8%
COC(=O)N1CCC2(CCCN(Cc3nccs3)C2)CC1 -15.6%
CN1CCCN=C1COC(=O)C(O)(c1ccccc1)C1CCCCC1 (stereo not drawn) -9.23%
CC(C)(Oc1ccc(Cl)cc1)C(=O)O -12.1% [middle of 4 runs]
Cc1cnc(CNc2ncnc3ccc(-c4ccccc4C(F)(F)F)cc23)cn1 -9.61%
Cc1nc2cnc(OCc3ccccc3)nc2n(CCc2ccccc2)c1=O 5.31%
[O-][n+]1ccccc1SSc1cccc[n+]1[O-] -2.96%
OCCN1CCN(Cc2ccc3c(c2)CN(Cc2cccc4ncccc24)CCO3)CC1 -10.1%
COc1cccc(-c2ccc3ncnc(NCc4ccc(OC)cc4OC)c3c2)c1 6.05%
CC(=O)NC1C(OC2OC(CC(O)C3OC([N+]4=CCC(=O)NC4=O)C(O)C3O)C(O)C(O)C2NC(=O)/C=C/CCCCCCCCC(C)C)OC(CO)C(O)C1O (stereo not drawn) -35.1%
COc1ccc(C(=O)NCC2Cc3cc(C)cc(-c4nc5ccccc5s4)c3O2)c(OC)c1OC (stereo not drawn) -16%
Cc1cnc(C)c(-c2cccc3c2OC(CNC(=O)C[C@@H]2C[C@@H](C)NC(=S)N2)C3)n1 (stereo partly drawn) 1.19%
COc1ccc(CCNCC(O)COc2cccc(C)c2)cc1OC (stereo not drawn) -3.71%
CSc1ccc(C(=O)c2[nH]c(=O)[nH]c2C)cc1 -0.506% and -1.5%
C=C1C(=O)O[C@@H]2[C@H]3O[C@]3(C)CC/C=C(\C)CC[C@@H]12 2.18%
COc1ccc(-n2c(=O)c(-c3ccc(F)cc3)nc3cnc(N4CCNCC4)nc32)cc1 1.71%
CN(C)c1ncc2nc(-c3ccccc3)c(=O)n(Cc3cccs3)c2n1 -10.2%
Cc1ccc(C(=O)NCCc2nnc3n2CCN(Cc2ccnc4ccccc24)CC3)c(C)c1 -8.07%
O=C(C[C@H]1C(=O)N(c2ccc(F)c(F)c2)C[C@@H]1Cc1ccccc1)Nc1ccccc1 -26.6%
CC1(C)S[C@@H]2[C@H](NC(=O)C(C(=O)Oc3ccc4c(c3)CCC4)c3ccccc3)C(=O)N2[C@H]1C(=O)O (stereo partly drawn) -23.3%
COc1ccccc1-c1cc(NCc2cccnc2)ncn1 -4.05%
Cc1cccc(C(=O)O[C@H]2[C@H](Cc3ccccc3)NS(=O)(=O)[C@H]3CC4C=C[C@]23O4)c1 -36%
Cc1cc(C(=O)NNCc2ccccc2)no1 0.6%
Cc1ccccc1-c1cc(Nc2ccccc2)ncn1 -10.4%
COc1ccc2c(c1)CC[C@@H]1[C@@H]2CC[C@]2(C)[C@@H](NCCCCCCN3C(=O)C=CC3=O)CC[C@@H]12 3.17%
CC(C)c1c(C(=O)NCC2(N3CCOCC3)CCCC2)cnn1-c1nccc(-c2cccs2)n1 6.09%
COc1ccc(OC)c(/C=C/c2cc3ccccc3cn2)c1 -9.69%
COC(=O)c1cccc(C(=O)NCc2nc(-c3ccccc3NC(C)=O)oc2C)c1 -1.54%
COc1ccc(-c2ccc(=N)n(CCCC(=O)O)n2)cc1 -13.7% and 9.64%
Cn1ccc(C(=O)NCC2CCC3(CCN(Cc4cc(F)cc(F)c4)CC3)O2)n1 (stereo not drawn) 1.02%
C=C1CC[C@@H]2O[C@@]2(C)CC[C@H]2[C@H]1CC2(C)C -14.1%
CC(C)(S)[C@@H](N)C(=O)O 9.65%
CC1=CC(=O)C2=C(C)C[C@H](OC(=O)Cc3ccccc3)C3[C@H](OC(=O)[C@H]3C)C12 (stereo partly drawn) -38.8%
C=CCCCCCCCCCCCC(O)CC(O)COC(C)=O (stereo not drawn) -55.6%
CN(Cc1cccc2ncccc12)C(=O)c1cnn(-c2nccc(-c3ccccc3F)n2)c1C1CC1 -30.8%
COc1ccc(Oc2ncc3nc(-c4ccc(F)cc4)c(=O)n(C[C@H]4CCCO4)c3n2)cc1 4.33%
CC(=O)Oc1c(-c2ccccc2)oc2c(CC=C(C)C)c3c(c(OC(C)=O)c2c1=O)C=CC(C)(C)O3 -6.7%
CC(N)(C(=O)O)c1ccc(P(=O)(O)O)cc1 (stereo not drawn) 2.19%
Cc1cnc(CNc2ccnc(-c3ccccc3CN(C)C)n2)cn1 -13.8%
CCCCCCCCCCC[C@@H](C[C@@H]1OC(=O)[C@H]1CCCCCC)OC(=O)[C@H](CC(C)C)NC=O -26.7%
NCC1CCC(C(=O)O)CC1 (stereo not drawn) -1.96% and 7.53%
COC(=O)[C@@H](Cc1ccccc1)N(Cc1ccccc1)S(=O)(=O)N(Cc1ccccc1)[C@H](Cc1ccccc1)C(=O)OC -11.2%
CC(C)(C)n1nc(-c2ccc(Cl)cc2)c2c(N)ncnc21 5.86%
COc1ccc(-c2nc3cnc(N(C)C)nc3n(C3CC3)c2=O)cc1 5.78%
Oc1cn2c(n1)Nc1ccc(Cl)c(Cl)c1C2 -13.8% and 5.04%
COCCN1CCN(C(=O)c2sc3ncnc(NCC4CCCO4)c3c2C)CC1 (stereo not drawn) 7.05%
Cc1cc(C)n(-c2cccc(C(=O)NCC3Cc4cccc(-c5ccccn5)c4O3)c2)n1 (stereo not drawn) -2.28%
CN(C)C(=O)c1ccc(-c2nc(NCc3cccs3)c3ccccc3n2)cc1 -22.7%
Nc1nc2c(ncn2[C@@H]2O[C@H](COP(=O)(O)OP(=O)(O)O)[C@@H](O)[C@H]2O)c(=O)[nH]1 7.45%
COc1ccc2c(c1OC)OCC(c1ccc(OC)c(OC)c1OC)C2 (stereo not drawn) -15.3%
Cc1ccc2c(c1)CN(CCNC(=O)c1ccc3nc(C)[nH]c3c1)CC(C)O2 (stereo not drawn) 6.81%
O=C(CN1Cc2ccccc2OC(c2ccccc2F)C1)NC(c1ccccn1)C(F)(F)F (stereo not drawn) -18.2%
Cc1ccnc2c(Cl)c(Cl)ccc12 -19.9%
CCCC[C@H]1COCCS(=O)(=O)N1Cc1ccccc1F -18.7%
COc1cc(C/C=C/c2ccccc2)c(OC)cc1O 3.63%
O=C1O[C@H](CO)[C@@H](O)[C@H](O)[C@H]1O -6.86%
COc1ccc2c(c1)-c1nc(-n3ncc(C(=O)NCc4cccc(C)n4)c3C3CC3)ncc1CC2 -4.74%
COc1ccccc1CNc1nc(-c2cccnc2)nc2ccccc12 6.15%
S=C(Nc1ccccc1)Nc1nccs1 -47.5%
Cc1c(C(=O)NCc2ccc3c(c2)OCO3)cnn1-c1ncc2c(n1)-c1ccccc1CC2 11.6%
CC(C)(C)OC(=O)N(Cc1ccco1)S(=O)(=O)c1ccccc1Br -2.2%
N=C(N)N -9.31%
CCOC(=O)C[C@H]1c2ccccc2S(=O)(=O)N1Cc1cccc(C(F)(F)F)c1 -20%
C=CC(C)(O)CC/C=C(\C)CCC=C(C)C (stereo not drawn) -40.3%
CCN(CC)CCOC(=O)C1(c2ccccc2)CCCC1 -10.9%
CC(NC(=O)c1ccco1)c1nnc2n1CCN(Cc1ccc(N(C)C)cc1)CC2 (stereo not drawn) -4.07%
O=P(O)(O)C(Sc1ccc(Cl)cc1)P(=O)(O)O -0.0579%
O=C1N=C(O)CN1/N=C\c1ccc(-c2ccc([N+](=O)[O-])cc2)o1 -2.1%
N#CCCn1c(=O)cnc2cnc(Oc3ccccc3)nc21 -12.4%
C=CCCN(Cc1ccccc1)S(=O)(=O)c1cc(Br)ccc1Br -21.9%
